Source: article PMC12136788
The other results are listed elsewhere or left out.

T1: UNK ZnF1-3 (human, UniProt Q9C0B0 31-174)
T1 sequence: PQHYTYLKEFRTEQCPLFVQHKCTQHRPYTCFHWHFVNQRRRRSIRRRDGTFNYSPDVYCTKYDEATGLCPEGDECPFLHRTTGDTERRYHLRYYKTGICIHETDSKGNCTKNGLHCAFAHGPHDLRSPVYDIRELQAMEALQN

B1: chr4:6882955:6882956:+_ENSG00000170871_ENST00000425103|hu_hu|motif|central (ssRNA)
RNA: GGGAGUUCUACAGUCCGACGAUCACCGCAGUCGGAAGGAAAAUUAACUGCAGUUAAGAUGCAAAAAGCAGUGAUACUUCGGAGACAAGCACAUGCACACCCAUUCUUGAUUUGACAACACAAUCUAGUCUAUUUCAAAUAGCCCAACAGAGGAUUGAGCAUCA
B2: chr7:97836282:97836283:+_ENSG00000164715_ENST00000297293|hu_mus|motif|central (ssRNA)
RNA: GGGAGUUCUACAGUCCGACGAUCAAAGCGAGGUCUCCCUCUGUGUUAGGGACAGCAGACUCCUCCGAUGAUGUACUGAAGCGGCGCUGAAGAUGUGAAAUCCCUUUCAGAACAAGAGGAGAGCUGGGUGCUUGGUACAGGAAACAACAGAGGAUUGAGCAUCA
B3: chr6:86333760:86333761:-_ENSG00000135316_ENST00000355238|hu_mus|hu_hu_hu_mus_True|78_98 (ssRNA)
RNA: GGGAGUUCUACAGUCCGACGAUCUUCCUCAAGAAUCUGUUCCUUGGUUUUACUCUUAGGAAUAGAGCCCACAAAAAGCCUAUUGUUGGCAACUGAGAUGCAGACACCAAUGUGCUUCCCGGAACGAAUUUCAUGAUUAUUAUACAACAGAGGAUUGAGCAUCA
B4: chr14:89338683:89338684:+_ENSG00000165533_ENST00000346301|hu_hu|hu_hu_hu_mus_False|48_68 (ssRNA)
RNA: GGGAGUUCUACAGUCCGACGAUCGUGGUUGUUGUGGACCAGGGCCAGCCUGAAGCAUUGGUGGGCCAAAUUUGUAUCUCCGAUUCCCACAGCUACAUGCCCCAGGUUGUACCAGACAUCAGCUGCCUCUUCUUCAUUUUCAGCCAACAGAGGAUUGAGCAUCA
B5: chr2:160855017:160855018:-_ENSMUSG00000057133_ENSMUST00000039782|mus_mus|motif|central (ssRNA)
RNA: GGGAGUUCUACAGUCCGACGAUCAUCCUUUUCCAGUUCUUCCAUUGUGGCCCAUUUACAAUGUAAAUAGGAAAAAUUUCGGUACUUAACGUAGAAAAGCUCUAGGUCGAAUGGAGGUUCUCCUGGGUGAACCUCCUGGACAGUCAACAGAGGAUUGAGCAUCA
B6: chr6:40197388:40197389:+_ENSMUSG00000057716_ENSMUST00000061740|mus_mus|mus_mus_mus_hu_False|58_68 (ssRNA)
RNA: GGGAGUUCUACAGUCCGACGAUCGAGACACUGGGGUGGAUUUAUUCCACCUCUGUUUGGGUGCUAGUAAGAUAGAUAGCUAUUUUGGGAUUCAUGGCCUUGAAUAUCAAGAGGGAAAGGAAGAGGAUGGAAAGAGUCAAGAGUCAACAGAGGAUUGAGCAUCA
B7: chrX:71549400:71549401:+_ENSMUSG00000019087_ENSMUST00000019231|mus_hu|mus_mus_mus_hu_False|38_38 (ssRNA)
RNA: GGGAGUUCUACAGUCCGACGAUCGCAGUAGGAAGAGGGAAGCUCUUCAGUCCAGUGCGCUGCAGGGUGGGAAAGCAACAACACGGACACCGUCCCACCUCAAUUCCCCCCACUGGCACAGGGUCACACAAUCUGGGUCAAAGACAACAGAGGAUUGAGCAUCA
B8: chr21:34924512:34924513:+_ENSG00000159140_ENST00000381679|hu_mus|FALSE|FALSE (ssRNA)
RNA: GGGAGUUCUACAGUCCGACGAUCAGAUGACAUCAUGGAACGUUCUGCAGCAUAGGACAUCAUCAUAGAACGUCUAGAUGCUAACAUCAAGGGUCUAGGUGCUAACCUGUAUGGCCUAGGUGCUAUCCUAUAGGACCUGGGUGCCAACAGAGGAUUGAGCAUCA
B9: chr7:106494041:106494042:-_ENSMUSG00000070436_ENSMUST00000094154|mus_mus|FALSE|FALSE (ssRNA)
RNA: GGGAGUUCUACAGUCCGACGAUCUUCUCGUUUUGAAAGCAACAAAGGCUCAUAUUUCCCUUCCCCCCAUCUUUGAAAAAACUAAAAAAGGGAGAAAAACAAAAGUUCAUGACUGUGAUGCCCAACAUAACAAUUCUAGGGCAGCAACAGAGGAUUGAGCAUCA
B10: chr8:104439394:104439395:+_ENSG00000164934_ENST00000297579|hu_mus|FALSE|FALSE (ssRNA)
RNA: GGGAGUUCUACAGUCCGACGAUCGCUGUCAAAUCCCCAGUUCAUUGAGCACACAGGGCUGGUUCUUUGUUCAUCCCAAAUGUCUACUUGCUGUCCACAAGUGGCAAAGACUGGGUCUUUCCAGUGAUGAUCAAUGCCAGUAUACAACAGAGGAUUGAGCAUCA
B11: chr5:154346341:154346342:+_ENSG00000082515_ENST00000439747|hu_hu|FALSE|FALSE (ssRNA)
RNA: GGGAGUUCUACAGUCCGACGAUCAACUGCCGUCUUUGGUGGCUCAGGUGGAGGUGGGGGCCCUUCCACCAACUUCACAAAAUAAUGGCAAUAAACCUUCUCCAUGAUCCCAAAGCGACCUCUGCCAUGGUAGCGGAUGCGUUUCAACAGAGGAUUGAGCAUCA
B12: chr1:71529667:71529668:-_ENSG00000132485_ENST00000254821|hu_hu|motif|central (ssRNA)
RNA: GGGAGUUCUACAGUCCGACGAUCUUGUCACUGGAAAUACUGUUAAGAGAAACCUUUUUAUUUUUUAAACCAGAAAACAAACGGAAGCUCAUGUGACCAGAUUUUAAUUUUGAGAAAUAAACUCCAAAAGCAUUUUAAGCCAUACAACAGAGGAUUGAGCAUCA
B13: chr17:63010574:63010575:-_ENSG00000120063_ENST00000439174|hu_hu|FALSE|FALSE (ssRNA)
RNA: GGGAGUUCUACAGUCCGACGAUCGAAACAUUCCACCAGGAAUUUUUGGACGUCUCUUAAGCAGUGGGGAUCCCCUUCAAAUUCUAGGAAAUAGUCUUUGAUGCUCACAAUUUGCACCUUCUCCUCAAGCAAGUCUGUCUUGUUCAACAGAGGAUUGAGCAUCA
B14: chr6:133136146:133136147:+_ENSG00000112306_ENST00000230050|hu_mus|FALSE|FALSE (ssRNA)
RNA: GGGAGUUCUACAGUCCGACGAUCACACAGAUGGGCUUGGCGCUUGUCUAAGGCUUUGGCAGCUUCGCGUAUGCCACGUGCUAGGCCAUCGUGGAUGAGGGCGGUCUUCAGCACCUCUUGUAGAGCAGUGUUGACGUCCAUUACCAACAGAGGAUUGAGCAUCA
B15: chr4:148551591:148551592:-_ENSMUSG00000063077_ENSMUST00000060537|mus_mus|FALSE|FALSE (ssRNA)
RNA: GGGAGUUCUACAGUCCGACGAUCACCUUACAAAAUUAAAUAUCCCUGUAAAUUAGACAAGAAGCAGCAGGUAACAAAGUCUAUGCUUUGAAAUAUGUGCCAGGAAAAAUCAUGUUUUAGACCCCAAACACCUUUCACAACCAUCAACAGAGGAUUGAGCAUCA
B16: chr12:110819636:110819637:-_ENSG00000196510_ENST00000455511|hu_hu|motif|central (ssRNA)
RNA: GGGAGUUCUACAGUCCGACGAUCGAGCCGUAUGGCCUCCCGAAAGUGGAUUAUUGCUUCUUGGACUCUGCCCAUGUUCCGGAGUGCUGCUCCCUUAAGUAGCAGAGCUUGAACACUAUUACUGUUCAGCUGAAUGGCCUUGGCCAACAGAGGAUUGAGCAUCA
B17: 83145050_83145604_2900_CDS_ENSMUSG00000031865_ENSMUST00000113913|mouse|control|control (ssRNA)
RNA: GGGAGUUCUACAGUCCGACGAUCAGCGCUGUCCAACUUCUUCUCCAGGAGGCUGAGCCGCACGUUGGCCUCACUCAGCUCCUCUCCCUUAAUCUUGAGUGACUUCUUUAACUCCUUGAUAACUGUCUCUCGAUCCUCAAGCUUCAACAGAGGAUUGAGCAUCA
B18: chr11:50196439:50196440:+_ENSMUSG00000007850_ENSMUST00000069304|mus_hu|FALSE|FALSE (ssRNA)
RNA: GGGAGUUCUACAGUCCGACGAUCCCCGUAUCUGUGAUCAGACAUUCCUGAAAAACAGUAAUUGAGGUCUCUUCCAAAUCUAUCUGACCCAAAUCCAUAGCCAUCAUUAUAGCCAUUGUAAUCAUCAUAGCCUCCAUAGCCUCCCAACAGAGGAUUGAGCAUCA
B19: chr1:244855233:244855234:+_ENSG00000121644_ENST00000302550|hu_mus|hu_hu_hu_mus_True|38_58 (ssRNA)
RNA: GGGAGUUCUACAGUCCGACGAUCCAUCAGAUGGUAGGCGUUGCCCUUAUACUCUUUCCCCAGUUCUUCUACAAUUUUUUCUAUAUCAUCUUCUAGAAAGUCCGUGCUUCCUAGAACAACAGCUUCUUUAAAUUUAAAUGUUUCCAACAGAGGAUUGAGCAUCA
B20: chr11:12883819:12883820:+_ENSG00000187079_ENST00000361905|hu_hu|motif|central (ssRNA)
RNA: GGGAGUUCUACAGUCCGACGAUCAAUGUGACUAGACACCUGUUUUCUGGUCCUCGUCUUGCCUGUCCUGAGUUUGAUGUAUCUGGCGGUCAAUUCAUUCCUACCAUACAUUUUGCCUUCGUCUGAUAAGAUGAUUUUCCUCCUCAACAGAGGAUUGAGCAUCA
B21: chr4:138453181:138453182:-_ENSG00000189184_ENST00000344876|hu_mus|FALSE|FALSE (ssRNA)
RNA: GGGAGUUCUACAGUCCGACGAUCGCUCCUCAUAAAUCCUGUAUUUCAGAUUCUUAGCCAGGACAUCGUGGCUGAAAAACGCCAUCAGAAGUGCAAGUGCAAAUCUAAAGUGCAUUUUAGUAUUCAUUUGGUGCAUUGGUCAGUCAACAGAGGAUUGAGCAUCA
B22: chr17:49039638:49039639:-_ENSG00000008294_ENST00000262013|hu_hu|FALSE|FALSE (ssRNA)
RNA: GGGAGUUCUACAGUCCGACGAUCCAUUCUGAACCCCAGGGAUUCCAUAAUAGAAAUAAAUACUGAAAUAACUACAUUGCUAAAUGAGCUCUUUGCUCAUAGAAAUGAAGCUCAGCCUCUAAGAGACAGCAAGUGGGACAUUCUCAACAGAGGAUUGAGCAUCA

Target: T1, UNK ZnF1-3
Experiment: nsRBNS (natural sequence RNA bind-n-seq); RBNS binding buffer (assumed for nsRBNS): 25 mM Tris pH 7.5, 150 mM KCl, 3 mM MgCl2, 0.01% Triton X-100, 500 ug/ml BSA, 20 U/ml SUPERase-In, 4 C; UNK is unkempt and MSI1 is Musashi-1; names of the RNAs are library labels; protein concentration not given here; high values mean tight binding

Binder | binding signal [enrichment R]
B1 | 1.65
B2 | 1.27
B3 | 0.873
B4 | 0.666
B5 | 0.631
B6 | 1.51
B7 | 1.39
B8 | 0.427
B9 | 2.75
B10 | 0.909
B11 | 0.79
B12 | 1.48
B13 | 0.765
B14 | 0.625
B15 | 1.68
B16 | 0.898
B17 | 0.8
B18 | 1.04
B19 | 1.48
B20 | 0.306
B21 | 1.03
B22 | 1.46
